Reference: PMC5013526
Results are given in words; binding and its absence hold for the method and conditions named. In cells and extracts the contact can be indirect. Some results given as binding are weak or reduced against the parent protein; the word gives no strength.

The chains behind the UniProt entries cited, without tags or fusion partners.
UniProt Q9QR71: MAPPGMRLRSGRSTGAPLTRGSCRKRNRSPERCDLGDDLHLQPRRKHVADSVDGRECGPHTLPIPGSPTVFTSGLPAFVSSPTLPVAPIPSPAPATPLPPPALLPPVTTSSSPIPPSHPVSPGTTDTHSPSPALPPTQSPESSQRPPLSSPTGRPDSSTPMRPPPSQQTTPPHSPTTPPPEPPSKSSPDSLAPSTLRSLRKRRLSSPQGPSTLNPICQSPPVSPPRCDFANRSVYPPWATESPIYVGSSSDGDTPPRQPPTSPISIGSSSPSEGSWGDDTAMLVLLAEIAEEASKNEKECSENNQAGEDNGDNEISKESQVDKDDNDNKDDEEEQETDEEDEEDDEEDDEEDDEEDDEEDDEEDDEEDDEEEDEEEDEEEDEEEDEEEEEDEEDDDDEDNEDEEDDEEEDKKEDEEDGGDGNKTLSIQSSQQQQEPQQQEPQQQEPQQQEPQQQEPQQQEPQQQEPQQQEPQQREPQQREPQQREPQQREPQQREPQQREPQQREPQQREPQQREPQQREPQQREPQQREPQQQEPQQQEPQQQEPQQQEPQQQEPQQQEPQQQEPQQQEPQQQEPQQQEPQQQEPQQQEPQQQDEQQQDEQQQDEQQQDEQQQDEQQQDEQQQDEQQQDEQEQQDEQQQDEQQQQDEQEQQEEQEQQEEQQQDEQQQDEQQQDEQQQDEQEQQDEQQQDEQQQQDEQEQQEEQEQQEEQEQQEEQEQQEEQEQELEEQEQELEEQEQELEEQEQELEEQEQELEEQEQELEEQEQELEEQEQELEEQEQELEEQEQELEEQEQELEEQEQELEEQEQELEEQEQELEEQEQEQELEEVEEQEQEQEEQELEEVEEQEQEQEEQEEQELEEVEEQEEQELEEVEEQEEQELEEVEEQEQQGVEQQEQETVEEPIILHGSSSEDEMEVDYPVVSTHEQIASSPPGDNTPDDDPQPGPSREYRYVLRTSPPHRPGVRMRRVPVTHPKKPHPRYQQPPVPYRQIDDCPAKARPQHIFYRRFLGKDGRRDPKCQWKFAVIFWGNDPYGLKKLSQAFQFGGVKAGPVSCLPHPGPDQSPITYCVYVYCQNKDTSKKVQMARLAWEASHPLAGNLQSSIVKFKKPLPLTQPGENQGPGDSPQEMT

Columns and labels:
[1] = target: Myc-tagged full-length LANA (pA3M LANA) (KSHV (human herpesvirus 8)) (UniProt Q9QR71); assay: co-IP; HEK 293T cells co-transfected with Flag- and Myc-tagged constructs; RIPA lysate (150 mM NaCl, 1% NP-40); IP with anti-Flag or anti-Myc, blot for the other tag
[2] = target: T1, Nucleosome assembly protein 1-like 1 (NAP1L1), endogenous (human (endogenous in BCBL-1 and BC-3)) (UniProt P55209); assay: co-IP; endogenous proteins from BCBL-1 and BC-3 RIPA lysates (150 mM NaCl, 1% NP-40, sonicated); IP with anti-LANA and blot for NAP1L1, or IP with anti-NAP1L1 and blot for LANA; BJAB cells or control IgG as controls
T1 sequence: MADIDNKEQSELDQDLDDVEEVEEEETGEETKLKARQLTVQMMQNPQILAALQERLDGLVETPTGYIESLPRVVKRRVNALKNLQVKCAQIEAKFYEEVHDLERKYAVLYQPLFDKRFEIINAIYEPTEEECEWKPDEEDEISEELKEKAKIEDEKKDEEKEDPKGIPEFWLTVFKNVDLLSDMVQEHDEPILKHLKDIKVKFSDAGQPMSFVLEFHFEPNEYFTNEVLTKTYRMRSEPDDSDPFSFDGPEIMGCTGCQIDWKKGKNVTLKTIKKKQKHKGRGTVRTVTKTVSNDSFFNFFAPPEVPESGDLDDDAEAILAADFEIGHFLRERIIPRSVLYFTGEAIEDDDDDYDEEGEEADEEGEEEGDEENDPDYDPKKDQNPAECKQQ

Substance	binding [1]	binding [2]
Flag-tagged NAP1L1 aa 1 to 91 (from UniProt P55209 1-91) (domain or fragment)	no binding	
Flag-tagged NAP1L1 aa 1 to 191 (from UniProt P55209 1-191) (domain or fragment)	binds	
Flag-tagged NAP1L1 aa 1 to 291 (from UniProt P55209 1-291) (domain or fragment)	binds	
Flag-tagged NAP1L1 aa 92 to 191 (from UniProt P55209 92-191) (domain or fragment)	binds	
Flag-tagged NAP1L1 aa 192 to 391 (from UniProt P55209 192-391) (domain or fragment)	no binding	
Latency-associated nuclear antigen (LANA), endogenous in KSHV-positive cells (from UniProt Q9QR71 1-1129)		binds
